Over roughly 110,000 compounds, “z-score” has its median near -0.1; the highest 2% begin near 2. Some of the results follow. Activity calls are given as the source filed them.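 The calls were made as follows: active = z-score in the third read window above 3 or below -3; inactive = the rest.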
Target: Metabotropic glutamate receptor 8 (Rattus norvegicus) (UniProt P70579)
Assay: mGluR8 Gi/Go-coupled signaling modulation – cell-based, rat, thallium flux, HTS, primary screen (AID 488969)
Conditions: HEK293 rat mGluR8, GIRK (G protein-gated inwardly rectifying potassium channel) thallium flux, FluoZin2; at 10 µM; stronger effect = higher value; submaximal glutamate (EC20) added with thallium

Sequence of UniProt P70579 (P70579 whole entry, looked up): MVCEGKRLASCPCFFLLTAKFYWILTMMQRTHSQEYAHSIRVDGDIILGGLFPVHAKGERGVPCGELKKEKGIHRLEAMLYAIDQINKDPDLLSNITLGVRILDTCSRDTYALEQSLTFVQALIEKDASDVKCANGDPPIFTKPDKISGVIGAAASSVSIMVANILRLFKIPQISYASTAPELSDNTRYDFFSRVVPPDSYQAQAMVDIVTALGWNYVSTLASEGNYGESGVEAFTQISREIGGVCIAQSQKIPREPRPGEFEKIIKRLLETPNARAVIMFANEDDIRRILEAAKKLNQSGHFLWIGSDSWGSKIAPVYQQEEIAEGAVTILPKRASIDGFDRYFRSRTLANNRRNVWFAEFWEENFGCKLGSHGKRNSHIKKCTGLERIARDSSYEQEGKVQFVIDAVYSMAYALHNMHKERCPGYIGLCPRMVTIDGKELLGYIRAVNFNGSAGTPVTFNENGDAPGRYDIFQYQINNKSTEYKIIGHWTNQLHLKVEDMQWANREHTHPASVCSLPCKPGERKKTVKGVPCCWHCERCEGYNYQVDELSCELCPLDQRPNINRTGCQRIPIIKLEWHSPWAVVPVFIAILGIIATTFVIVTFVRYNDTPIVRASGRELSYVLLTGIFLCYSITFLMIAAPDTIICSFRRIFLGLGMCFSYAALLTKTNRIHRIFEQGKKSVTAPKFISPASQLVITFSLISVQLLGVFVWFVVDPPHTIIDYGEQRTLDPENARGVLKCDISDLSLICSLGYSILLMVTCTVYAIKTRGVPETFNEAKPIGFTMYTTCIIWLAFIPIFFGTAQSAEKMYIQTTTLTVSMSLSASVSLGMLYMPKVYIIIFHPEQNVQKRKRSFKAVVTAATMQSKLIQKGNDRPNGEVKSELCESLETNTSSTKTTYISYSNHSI

Row | Compound | z-score
1 | CCOC(=O)COc1ccc(N)cc1CC(NC(C)=O)(C(=O)OCC)C(=O)OCC | 0.0447
2 | Cc1noc(C)c1CSc1nc2sc(C)c(C)c2c(=O)n1-c1ccccc1 | 0.579
3 | O=C(CCN1C(=O)c2ccccc2C1=O)Nc1sc2c(c1C(=O)NCC1CCCO1)CCC2 (stereo unspecified) | -0.294
4 | CCCCN(C)CCC(=O)Nc1ccc(C)cc1 | 0.613
5 | Cc1ccccc1NC(=O)CCSc1nnnn1-c1ccccc1 | -0.202
6 | CC(C)c1ccc(C2=NN(c3ccccc3)C(=O)CC2)cc1 | -0.202
7 | COc1cc(OC)cc(C(=O)NCCNC(=O)c2ccccc2)c1 | 0.114
8 | COc1ccc(NC(=O)CN(c2ccccc2)S(=O)(=O)N(C)C)cc1OC | 0.192
9 | CCOC(=O)N1CCN(C(=O)CS(=O)(=O)c2cn(Cc3cccc(F)c3)c3ccccc23)CC1 | 0.0194
10 | CC(C)[C@H](NC(=O)c1ccccc1)C(=O)OCC(=O)Nc1ccc2c(c1)OCCO2 | -0.764
11 | Cc1ccc(-c2cc(C(=O)N/N=C\c3cnn(C)c3C)c3ccccc3n2)cc1C | -0.154
12 | Cc1cc(SCC(=O)NCCN2C(=O)CSC2=O)nc2ccccc12 | -0.0438
13 | CC1CC2(CCCCC2)Nc2c1ccc1ccccc21 (stereo unspecified) | -0.169
14 | Cc1[nH]c2ccccc2c1C(=O)C(=O)NCCc1ccc(S(N)(=O)=O)cc1 | -0.303
15 | O=C(/C=C/c1ccc(OC2CSC2)cc1)c1ccccc1 | 0.105
16 | CC1COC(c2cccn2Cc2ccccc2Cl)=N1 (stereo unspecified) | -0.306
17 | CCOc1ccc2nc(NC(=O)Nc3ccccc3)sc2c1 | 0.853
18 | COc1ccc(C(=O)CSc2n[nH]c(N)n2)cc1 | -0.205
19 | Cc1ccc(C)c(NC(=O)C2C(c3ccccc3)C2(Cl)Cl)c1 (stereo unspecified) | -0.251
20 | CCOc1ccc(Br)cc1S(=O)(=O)Nc1cccc(S(=O)(=O)N(C)c2ccccc2)c1 | 0.113
21 | O=C(CSc1nc(-c2ccco2)cc(C(F)(F)F)n1)N1CCN(Cc2ccccc2)CC1 | -0.179
22 | COc1ccc(-c2nnc(-c3ccc(N(C)C)cc3)o2)cc1 | 0.133
23 | O=C1CC(c2ccccc2)SC(N(c2ccccc2)c2ccccc2)=N1 (stereo unspecified) | -0.197

Row | Compound | z-score
24 | O=C(Nc1nnc(C(F)(F)F)s1)c1ccc(N2C(=O)C3C4C=CC(C4)C3C2=O)cc1 (stereo unspecified) | -0.186
25 | COc1cc(C2N3CC4(C)CN2CC(C)(C3)C4)ccc1O (stereo unspecified) | -0.0528
26 | Cc1csc(Sc2ccc([N+](=O)[O-])cc2C(=O)OCC(=O)NC(=O)NC(C)(C)C)n1 | -0.292
27 | C=CCOCC(O)CS(=O)(=O)Cc1ccc(Cl)cc1 (stereo unspecified) | 0.269
28 | CCOC(=O)c1c(C)oc2ccc(OCC(=O)C(C)(C)C)cc12 | -1.03
29 | COc1cccc(N2C(=O)C(CC(=O)Nc3ccc(F)cc3)N(C3CCCCC3)C2=O)c1 (stereo unspecified) | -0.212
30 | Cc1nn(C)c(C(=O)N2CCc3ccccc32)c1Br | -0.207
31 | COc1ccccc1N(C)S(=O)(=O)c1ccc(C(=O)Nc2ccc3nc(C)sc3c2)cc1 | -0.263
32 | Fc1ccccc1CSc1ncn[nH]1 | 0.409
33 | CCCc1nc(SCC(=O)Nc2ccc(S(=O)(=O)N(C)C)cc2)c2ccccc2n1 | -0.587
34 | O=C(CSc1nnc(CNC(=O)c2cccs2)o1)NC1CCCC1 | 0.182
35 | O=C(c1ccccc1)C1CCc2occc2C1=O (stereo unspecified) | -0.0301
36 | Cc1ccc2[nH]c3c(c2c1)CCc1cn[nH]c1-3 | 0.5
37 | O=C(c1ccc(Br)o1)N(Cc1ccccc1)c1ccccn1 | 0.118
38 | O=C(NCc1ccc2c(c1)OCO2)c1cccc(N2CCCC2=O)c1 | 0.0899
39 | CN(C)c1ccc(/C=C2\C(=O)N(c3ccc([N+](=O)[O-])cc3)N=C2N2CCOCC2)cc1 | -0.0708
40 | N#CCCn1cc(/C=C(\C#N)c2nc3ccccc3s2)c(-c2ccc(F)cc2)n1 | -0.278
41 | COc1ccc(/C=C2/C(=O)N(CC3CCCO3)C(=S)N2C)c(OC)c1 (stereo unspecified) | -0.162
42 | CCC/C(=N/NC(=O)c1csc(C)c1C)c1ccc(Cl)s1 | active: 5.92
43 | Cc1ccc(NC(=O)c2noc3c2CC(C(C)(C)C)CC3)cc1 (stereo unspecified) | 0.319
44 | COc1ccc(NC(=O)CSc2ncnc3c2sc2ccccc23)c(OC)c1 | -0.108
45 | CCSc1nnc(Nc2ccc(C)cc2)s1 | 0.627
46 | Nc1nnc(-c2cc3ccccc3oc2=O)s1 | -0.182

Row | Compound | z-score
47 | C=CCNS(=O)(=O)CC12CCC(CC1=O)C2(C)C (stereo unspecified) | 0.146
48 | COc1ccc(-c2ccc(-c3noc(-c4ccccc4F)n3)c(OC)n2)cc1 | -0.018
49 | Cc1ccc(S(=O)(=O)NCC2CCCO2)cc1[N+](=O)[O-] (stereo unspecified) | 0.0235
50 | CCOc1ccc(OCCOCCN2CCc3ccccc3C2)cc1 | 0.126
51 | COc1ccc(CN(C(=O)c2oc3ccccc3c2C)C2CCS(=O)(=O)C2)cc1 (stereo unspecified) | -0.764
52 | CCCS(=O)(=O)N1CCN(c2ccccn2)CC1 | -0.275
53 | CC/C(=N/NC(=O)CCC(=O)Nc1ccccc1OC)c1ccccc1 | 0.0762
54 | O=C(C1CCCN1S(=O)(=O)c1ccc(Cl)c(Cl)c1)N1CCOCC1 (stereo unspecified) | -0.626
55 | COc1ccc(CNc2ccc3c(c2)ncn3-c2ccccc2OC)cc1 | 0.73
56 | CCN(CC)C(=O)CSc1nc2ccc(NC(=O)CSc3nccn3C)cc2s1 | -0.187
57 | Cc1ccc(-n2c(O)c(C=NC3CCS(=O)(=O)C3)c3ccccc3c2=O)cc1C (stereo unspecified) | -0.607
58 | Cc1ccc(-n2nnc3c(=O)n(CC(=O)NCC4CCCO4)cnc32)cc1 (stereo unspecified) | -0.0412
59 | Cn1c(=O)[nH]c(=O)c2c1nc(N1CCOCC1)n2CC(O)COc1ccc2ccccc2c1 (stereo unspecified) | 0.0675
60 | CC(C)c1ccc(NC(=O)C(=O)c2cn(CC(=O)N3CCCCC3)c3ccccc23)cc1 | 0.0678
61 | CCn1nc(CC(=O)Nc2ccc(-n3cnnn3)c(OC)c2)c2ccccc2c1=O | -0.728
62 | CCN(CCO)Cc1csc2cc(C)ccc12 | 0.237
63 | COC(=O)Cc1csc(Nc2ccccc2Cl)n1 | 0.0565
64 | CN(C)C(=O)c1snnc1-c1ccccc1 | -0.386
65 | Cc1ccc(N(C(C)C(=O)Nc2ccc3c(c2)OCO3)S(C)(=O)=O)cc1 (stereo unspecified) | -0.175
66 | O=C(O)CCCC(=O)Nc1ccccc1C(=O)N1CCCC1 | 0.00246
67 | Cn1c(=O)c2c(nc(Br)n2Cc2ccccc2Cl)n(C)c1=O | -1.51
68 | COc1cc(/C=C2/SC(=S)NC2=O)ccc1OS(=O)(=O)c1ccc(C)cc1 | -2.12
69 | COc1cccc(NS(=O)(=O)c2cc(C)ccc2OC)c1 | -0.206

Row | Compound | z-score
70 | CN(C)/C=N/c1ncc(C(=O)c2ccc(Cl)cc2)s1 | -0.0806
71 | N/C(=N\OS(=O)(=O)c1ccccc1)c1ccccn1 | -0.247
72 | CCOc1ccc(C(=O)NC(=S)Nc2ccccc2N2CCOCC2)cc1Br | -0.0259
73 | CCCCCCCCOC(=O)CCc1c(C)[nH]c(=S)[nH]c1=O | 0.653
74 | COc1ccc(CC(=O)Nc2cccc(C(=O)Nc3ccccc3C(=O)O)c2)cc1OC | -0.414
75 | O=C(COc1ccc(-c2nnc(N3CCCCC3)c3ccccc23)cc1)N1CCCCC1 | -1.43
76 | Cc1cc2c(cc1C)N(C(=O)CSc1nncn1C)C(C)(C)c1ssc(=S)c1-2 | 0.234
77 | COc1ccc(N2CCN(C(=O)NC34CC5CC(CC(C5)C3)C4)CC2)cc1 | -0.0964
78 | COc1ccc2cc(-c3cc(C(=O)O)c4ccccc4n3)ccc2c1 | -0.468
79 | CCN(CC)S(=O)(=O)c1cccc(NC(=O)c2ccc(-n3nc(C)cc3C)cc2)c1 | -1.73
80 | Cc1nnc(SCC(=O)N2CC(=O)Nc3ccccc32)n1Cc1ccccc1 | -0.151
81 | CCn1cc([N+](=O)[O-])c(C(=O)Nc2nc(-c3ccc(C)c(C)c3)c(C)s2)n1 | -0.159
82 | COc1cccc(C(CC(=O)NCC2CCCO2)NS(=O)(=O)c2ccc(C)cc2)c1OC (stereo unspecified) | 0.165
83 | CCOC(=O)N1CCC(NC(=O)CNS(=O)(=O)c2ccc(Br)s2)CC1 | -0.0328
84 | COC(=O)c1sccc1NC(=O)CSc1ccc(Cl)cc1 | 0.289
85 | N#Cc1ccc(C(=O)N/N=C/c2cn(CC(=O)O)c3ccccc23)c(F)c1 | -0.248
86 | COc1ccc(C)cc1NS(=O)(=O)c1ccc(Br)s1 | 0.369
87 | CCc1cc(-c2n[nH]c(C)c2Oc2ccc(C(C)C)cc2)c(O)cc1O | -0.516
88 | O=C(C1CCCN(Cc2cccnc2)C1)N1CCCCC1 (stereo unspecified) | -0.256
89 | CCC(=O)Nc1ccc(/C(C)=N\NC(=O)c2ccc(C)s2)cc1 | -0.483
90 | COC(=O)c1c(C(=O)OC)c(C)n(Cc2ccco2)c1C | -0.275
91 | Cc1ccc(OCC(=O)NC2CCCC2)c(C)c1 | -0.271
92 | Cc1cc(C)c2c(n1)sc1c(-c3ccccc3)c(C#N)c(N)nc12 | -0.2

Row | Compound | z-score
93 | Cc1cc(C)c(C#N)c(SCc2[nH]nc3c2C(c2ccccc2)C(C#N)=C(N)O3)n1 (stereo unspecified) | -0.243
94 | CC(C)n1c(CN2CCN(C)CC2)nc2c1c(=O)n(C)c(=O)n2C | 0.0901
95 | CCOc1cccc(C(=O)Nc2cnn(Cc3ccccc3)c2)c1 | -0.148
96 | COc1cc(OC)c(C2N(C)c3ccccc3N2C)cc1OC | -0.038
97 | O=C(CSCc1ccccc1Cl)NN1C(=O)c2ccccc2C1=O | -0.182
98 | O=C(COc1ncnc2ccc(Br)cc12)NCc1ccc2c(c1)OCO2 | -0.00987
99 | Cc1ccc(-c2nn3c(C)nnc3s2)cc1NC(=O)c1ccc(OC(C)C)cc1 | -1.43
100 | Cc1cc(NC(=O)CSc2nc(C3CC3)nc3sc4c(c23)CCC(C)C4)no1 (stereo unspecified) | 0.482
101 | O=C(NCc1cccnc1)c1cnc2n(c1=O)CCS2 | 0.35
102 | CCc1cc(=O)oc2cc(C)cc(O)c12 | -0.13
103 | Cc1ccc(OCc2nnc(SCC(=O)N3CCOCC3)n2C)cc1 | 0.382
104 | COc1ccc(-c2ccnc(SCC(=O)c3ccc(OC)c(OC)c3)n2)cc1 | -0.302
105 | O=c1cc(-c2cccc3ccccc23)[nH][nH]1 | -0.261
106 | COc1ccc(C(NC=O)c2cc(OC)c(OC)cc2Br)cc1OC (stereo unspecified) | 0.382
107 | O=C(CCn1c(=O)[nH]c2ccsc2c1=O)Nc1ccc(F)c(F)c1 | -0.063
108 | Cc1ccc(-c2nc3ncccn3c2Nc2ccc3c(c2)OCCO3)cc1 | 0.0376
109 | Cc1cccc(OC(=O)c2ccc3nccnc3c2)c1 | -0.362
110 | Cc1cc(NS(=O)(=O)c2ccc(NC(=S)NC(=O)c3ccc(F)cc3Cl)cc2)no1 | 0.527
111 | CCOc1ccc(/C=C/C(=O)Nc2ccc(OC)cc2[N+](=O)[O-])cc1 | 0.211
